± gives the standard deviation of the averaged measurements. Over roughly 4,000 sequences, “arbitrary fluorescence units” has its median near 830; the highest 2% begin near 6,500. The list lacks most of the strong results.
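Further: Full-length recombinant human RUNX1 bound to double-stranded DNA microarray spots, detected with an Alexa488-labelled secondary antibody after the anti-RUNX1 primary, read as scanned spot fluorescence.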

Sequence of UniProt Q01196 (Q01196 whole entry): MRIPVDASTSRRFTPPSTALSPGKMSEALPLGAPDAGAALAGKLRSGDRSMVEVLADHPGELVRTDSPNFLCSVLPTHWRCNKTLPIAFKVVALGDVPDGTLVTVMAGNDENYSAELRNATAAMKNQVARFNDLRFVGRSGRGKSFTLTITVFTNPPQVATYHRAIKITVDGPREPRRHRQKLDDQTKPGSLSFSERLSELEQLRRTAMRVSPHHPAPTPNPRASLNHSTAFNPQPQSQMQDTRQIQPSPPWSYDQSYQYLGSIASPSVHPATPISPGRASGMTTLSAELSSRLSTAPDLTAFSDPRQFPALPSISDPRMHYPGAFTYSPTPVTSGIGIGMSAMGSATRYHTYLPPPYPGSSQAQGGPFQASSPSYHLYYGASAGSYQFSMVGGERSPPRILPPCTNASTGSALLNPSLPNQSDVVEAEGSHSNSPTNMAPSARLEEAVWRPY

In this test the target is RUNX1 (UniProt Q01196). Briefly: RUNX1 binding intensity (PBM fluorescence), RUNX1 alone (arbitrary fluorescence units); higher = stronger binding. Particulars: RUNX1 concentration 2 nM; ETS1 concentration 0 nM. Here is the method:
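gcPBM on 36-bp genomic-derived probes (partner site mutated) containing one RUNX1 site and no ETS1 site. Recombinant human RUNX1 (2 nM) was incubated alone or with ETS1 (25 nM) and detected by anti-RUNX1 antibody fluorescence. Values are medians over 4 replicate spots (not normalised). The probes sit in constant array flanks that are not printed.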
Consider GTAACAACACCACAGCGGACATGAAGAGGTCACCAA, for which the RUNX1 binding intensity amounted to 793.
TCCAACCTCAACATGCAAAACTCAGAGGCAACGCAG came in with an RUNX1 binding intensity of 891.
To CAACTCCGGCGCCCGCAGGCCACTTTCGCCTATGTA belongs 1070; to CGATGCTTACGGCCTCCTATTGGGTGGTTTCTTGGC, 694; to TAAAGAGGAATCGGCAGCCGCGCCTGCGCCCACAGT, 625.
To CCCCTCCGCTAACCGCTCATCCCAGCAAAAAGGGGC belongs 1240.
Take AGCGGCTCCTGCCGGCGGCGCGGGTTCCCTTCCCTC: the RUNX1 binding intensity turned out to be 857.
In turn, TCCCGGGAGCGGTTTTAGGGGGCCGCCTCCTTGGCC came in with an RUNX1 binding intensity of 685 ± 22.
Under CCCCAGGTTGCTTCAGTTCTGGGAACCGCGTCCTCG stands 755; under CCCGGCGGTTACTTTCGGTCACTTTCGCCGGGACCT, 847.
To GCGCCCGGCCCCGCACACGCACCATTTGCTGGCTTC belongs 906; to CTGCTAGCTGAAGCAGCCAAGCCCACAGGCTCCAGG, 712; to AGACGGTTCCAGGGGACCGGCCGCGACTGCGGCGGC, 670.
To TGGTCGCCGCAGCGAACAACCAGCTTACGGCAAGCT belongs 687.
In the case of ACCTCCTCCGAGACCCAAAATGCGCGGTCTGGAGAG, the RUNX1 binding intensity amounted to 855.
Under TACAACCGCCAGTAACGACAGCAGCTTTCGTTCCCC stands 783; under GTTGTGGGGAGTGCAAAAGCCCAGCAGCAAGCCGCT, 777.
Under TGCGAGGAGGCGCGGCCACGTGACTGCTGCGGGCCA stands 730.
For the sequence CAGGGAGGTGATGCACAGAAAACACAACCACACTGT, the RUNX1 binding intensity was 808.
Regarding TAGCACCCAAAACCACCTACTGGCTTCAGGCACCTC, the RUNX1 binding intensity was 994.
Under ATCACTTGTTGCCGCCAGCAAACCACAGGTCCCCAG stands 1230.
As for GGCGGGTTCAGGCTATTCCCTTCGCGGTCCAGTTTA, the RUNX1 binding intensity was 818.
Turning to CGATCCATTCGCGGTCTGCACCCGTAAAGTACACCT, the RUNX1 binding intensity worked out at 1150.
To TGTTCAGGAACAGGCAATGAAACCCCGCAGCTTTGA belongs 717.
Under CCCGGCCCAGGCAACTTCAGACTTCACCGCAGCTTC stands 1060; under CCGCCGCGCGCCGAATGCTAAGACCGCGATTTCCCC, 805; under TCCTCCGTTCCCGTAGTTCCGAGTTGCGGTTTCTCC, 7620.
Under AATATAGGAGGTGTCAGCTAGGGAACTCAACCACAA stands 828; under GAGGGAAGCCCTCACCACAGCAGGAATGGGAGCCAG, 769.
In turn, TGGCTGGGCATGAAGGCCTGTGGCTTACGGTTCCTG had an RUNX1 binding intensity of 694.
Under TGGCTACCCGAAAGGCGCGTTGGCTGCGGCTACGCA stands 733; under GCACCGTACCCGGCACTGCTCCCTCCCGCAGGCGCA, 901; under GTTCTCCACATGCTGTGCCGTAGCTGTGGTGCACCG, 819.
The sequence CCCGCCAGTTCCCTGCCTCTGCGGGAGCCCCCCAGC yielded an RUNX1 binding intensity of 881.
To CAGAAAAGGCAGGCAGTGGTACAAACCACAAAAGGC belongs 1060; to GAGCTGCAAGCCACAAAGACCGAAAGTGCGCGTACG, 721; to AGCACGCCGGGAACTGGAGTCTCAGGTGGTTTTTAA, 733.
CAGCTTTCCAGCCTGCAGCACAGGCAATGTGGTTTT registered an RUNX1 binding intensity of 1010.
In turn, CCTTCCCCTGTCGGAGAGCCCACCGCTGGGTCCTAA registered an RUNX1 binding intensity of 950.
To GGGGGCGGCAGTTTCGGTGCATTGTGGGTTCTCCTG belongs 775; to TGCTGGCTGCGGCCCTTGCCGTTGCTTTCAGGCGCA, 704; to ACTCCAGAGGAGGTGGCAAGACGAGCGCGGTAACGG, 733.
The sequence TGCCTTCTGGGAATTCGGGCGCTCTGCGGCTGTGAC returned an RUNX1 binding intensity of 722.
Under CTGTTAGTGGTTTGAATCTCACACCCTGTAATGGTT stands 948.
Under TTTAATTCTGTGGTTAGAAGTAAAAGGACGTAAAGG stands 3370; under CCTTCAGGCCGCAGCGCGGGGCACGCCGGGGAGCGC, 737; under CGGGCAGACTGCGGCCCTGGACGGGAATCGGCGGCC, 643.
For TGCACTCCAGTTCCCCTCGCCCGCAGTGAGCAGTCA, the RUNX1 binding intensity stood at 816.
Under GGCCCATGAAAGAGGCAGGGGTGCGGTTTCCCTCCG stands 1000.
To GAGAAGGGTGCGGTCTAGGGAGGAGGAGGTGCAGGT belongs 1180; to GTGCGCCTGCGGCGGCGACGAAACCGTAAGACAAGC, 689; to CCGCTTTTTGTGGGCCGGGTGGGTTACCTAATCTGG, 842.
Sequence GCCACCGCGCCCGGCCAAGCCTTTACGTCCTTTTAC gave an RUNX1 binding intensity of 928.
To CGCCGCGGCGTATGGAGGTGCCCAGGGCCACAGACC belongs 752.
Under CGGAGGCCGCTTGCGGGCTCCCGGAGGCGGCGCCCT stands 616; under AGGTTCAGGGGCTACACCCAGCCCAGGCCGCAGGCA, 798.
The sequence AGATTCTAGGCAGTGTCTGTAGCCGCAGCTGAGGGT returned an RUNX1 binding intensity of 736.
Under CTCTGCTTCATGTCTTTGAATGCCTCTGTGGTTTTC stands 1340; under AACACCACCTCCTACTGTGAAACCACACTGTATTTG, 1180; under GCAAAGATACGTCCTTCTCCCCACAGACTAAGTTTC, 974.
To CTTCGCGGTGACGGGGAACTACATGTCCCAGAAGGC belongs 844; to TCGCACTGTCTGTGGTTCTCTCCTTCATGTCAGCTG, 1110.

Source of the values: the supplement of paper PMC10681739.
